B1: chr16:74623592:74623693:-|3pUTR|ENSG00000168411|msi1|FALSE|unique (ssRNA)
RNA: GGGAGUUCUACAGUCCGACGAUCCCAUUAUUGUAUGUUGGAAAUUCUUAUUUUCUUUAUUUUCUGUGUGACUUUCUGGACCUUAGAGAGUGUCCUCUCAUCAUCUAGGAUGUGAGUGGGCAUCAAGCAUUUUCUGGGGAAUAUCAACAGAGGAUUGAGCAUCA
B2: chr9:6012816:6012917:-|CDS|ENSG00000137040|unk|FALSE|unique (ssRNA)
RNA: GGGAGUUCUACAGUCCGACGAUCGGGAUUGUGCAUAUUUGAUGACAUCAUAGAGCACUGCAGUCCAACUUCAUUUAAAUAUGUAGAAUAUUUUCGGUGGCCAAUGCUACUAAAUAUGCGAGAUAACAACCCUGAAGUCAGGCACAACAGAGGAUUGAGCAUCA
B3: chr1:205715917:205716022:-|3pUTR|ENSG00000069275|msi1_unk|total|mutant (ssRNA)
RNA: GGGAGUUCUACAGUCCGACGAUCGAGACAGGCUCUGAAUAACCUUUGUUUUCUCCACUUUUUAUUGAUGAUUUAAAACACUCCCGUCUUCCCCUCAAAUCAUGCAUGCAAACCGGAGGACAGUGGUGGUGACUCAACUGGAUACAACAGAGGAUUGAGCAUCA
B4: chr16:366968:367674:-|three_prime_utr|ENSG00000086504|control|control|control (ssRNA)
RNA: GGGAGUUCUACAGUCCGACGAUCGACUCACUACAACCUCCACCUCCAGAGUUCAAGUGAUUGUCCUGUCUCAGCCUCCUGAGUAGCUGGGAUUACAGGCACCCCGCUAUCAUGUAUGGCUAAUUGUAUUUUAGUAGAGAAGGGCAACAGAGGAUUGAGCAUCA
B5: chr16:46956602:46956663:-|3pUTR|ENSG00000069345|msi1_unk|FALSE|overlapping (ssRNA)
RNA: GGGAGUUCUACAGUCCGACGAUCGUUUGUACAAUUUGUCCUGAAGCUUUGUGUUUGGCUGCACCUGCAUAAGCUGCUACAAAUAGAAUAAAGAAUUUCAUAGCCUGUAUCUAUCAUUUAGAUGCAUGGAAAAAAAUGGGCUUUCAACAGAGGAUUGAGCAUCA
B6: chr15:71825291:71825392:-|3pUTR|ENSG00000066933|unk|total|mutant (ssRNA)
RNA: GGGAGUUCUACAGUCCGACGAUCUGAAGCUAUUUUUGUUAAUAUUCUGGUUACUGAAGUUUAUUGUAAAUAUGUAUGUACCGCCGGCAUAUUUCUUUUUAACCUUGUGCUUCCCUCCUUCCCAUGGAAUUUCUUCCCACAGAUCAACAGAGGAUUGAGCAUCA

Some of the results follow.

The experiment deals with MSI1 full-length (mouse, UniProt Q61474 1-362). The experiment can be described thus: nsRBNS (natural sequence RNA bind-n-seq); RBNS binding buffer (assumed for nsRBNS): 25 mM Tris pH 7.5, 150 mM KCl, 3 mM MgCl2, 0.01% Triton X-100, 500 ug/ml BSA, 20 U/ml SUPERase-In, 4 C; UNK is unkempt and MSI1 is Musashi-1; names of the RNAs are library labels; protein concentration not given here; high values mean tight binding.
Chain of UniProt Q61474 (Q61474 whole entry): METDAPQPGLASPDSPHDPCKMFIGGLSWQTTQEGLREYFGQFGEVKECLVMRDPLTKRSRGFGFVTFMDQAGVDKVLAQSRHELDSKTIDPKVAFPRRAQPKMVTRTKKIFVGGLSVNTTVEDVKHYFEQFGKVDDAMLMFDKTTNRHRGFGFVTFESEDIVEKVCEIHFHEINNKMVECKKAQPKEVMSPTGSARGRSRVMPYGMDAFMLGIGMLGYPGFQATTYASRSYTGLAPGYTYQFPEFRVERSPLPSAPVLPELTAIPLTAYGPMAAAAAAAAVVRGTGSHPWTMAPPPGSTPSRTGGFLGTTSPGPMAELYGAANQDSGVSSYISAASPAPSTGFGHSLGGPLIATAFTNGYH
As to B1, the binding signal is 0.568 enrichment R.

Turning to B2, the binding signal stood at 0.513 enrichment R.

For the molecule B3, the binding signal was determined as 0.488 enrichment R.

In turn, B4 yielded a binding signal of 1.24 enrichment R.

As for B5, the binding signal worked out at 0.633 enrichment R.

For B6, the binding signal is 0.592 enrichment R.

These data come from publication PMC12136788.
